{"source": "PubChem BioAssay AID485344", "about": "(National Center for Advancing Translational Sciences (NCATS), 2010)", "note": "Out of some 340,000 compounds screened, about 6,900 (2%) were called active. No stated cut-off is given here; in the data, active means inhibition above about 30%; inactive means below that, where a call was filed. This is a selection; strong and weak results do not stand in their true shares. The source gives no active or inactive call for entries shown without one."}
{"target": "D(2) dopamine receptor (Homo sapiens) (UniProt P14416)", "sequence (P14416 whole entry, looked up)": "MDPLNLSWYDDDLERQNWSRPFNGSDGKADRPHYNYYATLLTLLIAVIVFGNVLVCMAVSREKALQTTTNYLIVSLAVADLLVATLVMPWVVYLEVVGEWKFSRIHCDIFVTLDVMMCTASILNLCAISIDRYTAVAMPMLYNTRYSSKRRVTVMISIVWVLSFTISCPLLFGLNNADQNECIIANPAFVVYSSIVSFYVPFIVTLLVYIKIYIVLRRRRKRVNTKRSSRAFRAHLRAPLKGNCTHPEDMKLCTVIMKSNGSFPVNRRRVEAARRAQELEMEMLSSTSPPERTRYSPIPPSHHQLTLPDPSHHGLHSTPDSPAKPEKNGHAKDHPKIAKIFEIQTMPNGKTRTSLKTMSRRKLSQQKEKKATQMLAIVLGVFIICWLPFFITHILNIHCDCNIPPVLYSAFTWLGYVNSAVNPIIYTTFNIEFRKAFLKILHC", "assay": "HTS Assay for Allosteric Antagonists of the Human D2 Dopamine Receptor: Primary Screen for Antagonists; further: 0% is about no effect", "details": "HEK293 TREx D2 cells, calcium flux, dopamine EC80; at 10 µM; stronger effect = higher value", "how_it_was_run": "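Calcium flux kinetic readout in an inducible HEK293 TREx D2 line plated overnight at 30 C. After 180 s compound exposure, an EC80 dopamine challenge follows with another 180 s kinetic read to detect antagonism.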"}
{"smiles": "COc1ccc(CNC(=O)c2cnc3sc(N4CCCCCC4)nn3c2=O)cc1", "inhibition": "-1.05%"}
{"smiles": "CCOC(=O)c1cnc2ccccc2c1NCCc1ccc(OC)c(OC)c1", "inhibition": "-17%"}
{"smiles": "CCN1CCN(C2=C(NS(=O)(=O)c3ccc(C)cc3)C(=O)c3ccccc3C2=O)CC1", "inhibition": "active: 39.3%"}
{"smiles": "COc1cc(OC)c(C2Nc3c(C)cccc3-c3cc(C)nn32)cc1OC", "note": "(stereo not given)", "inhibition": "10.4%"}
{"smiles": "COC(=O)c1ccc(NC(=O)CC2C(=O)N(c3ccc(Cl)cc3)C(=O)N2Cc2ccco2)cc1", "note": "(stereo not given)", "inhibition": "5.4%"}
{"smiles": "O=C1CCCc2c1[nH]c1ccc(CN3CCCCC3)cc21", "inhibition": "active: 50.9%"}
{"smiles": "CC1=C(c2ccc(C)cc2)S(=O)(=O)NC1=NCc1cccc(F)c1", "inhibition": "10.2%"}
{"smiles": "CCN1C(=O)c2ccccc2S(=O)c2ccc(C(=O)N3CCN(c4cccc(C)c4)C(C)C3)cc21", "note": "(stereo not given)", "inhibition": "-18.2%"}
{"smiles": "c1ccc(CN2CCN(c3ncnc4nc[nH]c34)CC2)cc1", "inhibition": "active: 68.3%"}
{"smiles": "Cc1[nH]c2ccccc2c1C1N2CC3(C)CN1CC(C)(C2)C3=O", "note": "(stereo not given)", "inhibition": "-6.7%"}
{"smiles": "CC1=C(C(=O)OCc2ccccc2)C(c2cccc(Cl)c2Cl)CC(=O)N1", "note": "(stereo not given)", "inhibition": "8.87%"}
{"smiles": "O=C(Nc1ccc(Br)cc1F)N1CCC(CN2CCCC2)CC1", "inhibition": "18.3%"}
{"smiles": "Cc1nn(C)c2c1c(C(F)(F)F)cc(=O)n2C(C)C(=O)NCc1ccc(Cl)cc1", "note": "(stereo not given)", "inhibition": "-27.5%"}
{"smiles": "CCOC(=O)c1ccc(NS(=O)(=O)c2cc(-c3onc(C)c3C)ccc2C)cc1", "inhibition": "7.57%"}
{"smiles": "Cc1cccc(CNC(=O)CSCc2cnn(-c3ccccc3)c2-n2cccc2)c1", "inhibition": "-3.01%"}
{"smiles": "COc1ccc(OCc2nc3c4c(-c5ccccc5)c(-c5ccccc5)oc4ncn3n2)cc1", "inhibition": "5.44%"}
{"smiles": "COc1cccc(C(=O)c2cn(CC(=O)NCc3ccccc3)c3nc(C)ccc3c2=O)c1", "inhibition": "-8.55%"}
{"smiles": "COC(=O)c1sc(NC(=O)/C=C/c2ccc(OC)c(OC)c2)c(C(=O)OC)c1C", "inhibition": "18%"}
{"smiles": "COc1ccc(CNC(=O)CSc2nc3ccccc3nc2Cc2ccccc2OC)cc1", "inhibition": "1.68%"}
{"smiles": "CCN1CCN(c2cc3c(cc2F)c(=O)c(S(=O)(=O)c2ccccc2)cn3C)CC1", "inhibition": "7.62%"}
{"smiles": "CC(C)NC(=O)CCCN1C(=O)CCn2nc(-c3cccn3C)cc21", "inhibition": "13.5%"}
{"smiles": "COC(=O)c1cc2c(cc1NC(=O)c1cnn(-c3ccc(C)cc3)c1-n1cccc1)OCO2", "inhibition": "10.8%"}
{"smiles": "COc1ccc(-c2nn(-c3ccccc3)cc2/C=N/NC(=O)c2cccc(S(=O)(=O)Nc3ccccc3Cl)c2)cc1", "inhibition": "active: 45.2%"}
{"smiles": "COc1ccccc1NC(=O)CSc1nc2ccccc2c2nc(-c3ccccc3)nn12", "inhibition": "2.73%"}
{"smiles": "COc1ccccc1-c1cc(C(=O)Nc2ccccc2C(F)(F)F)no1", "inhibition": "-14.5%"}
{"smiles": "Cc1ccc(C2=Nc3ccccc3N(CC(=O)NCc3ccc(F)cc3)C(=O)C2)cc1C", "inhibition": "-3.46%"}
{"smiles": "O=C(O)c1ccc(-n2c(/C=C\\c3ccc(O)cc3)nc3ccccc3c2=O)cc1", "inhibition": "-15.1%"}
{"smiles": "CCOC(=O)c1ccccc1NC(=O)c1sc2ncn(Cc3cccc(F)c3)c(=O)c2c1C", "inhibition": "16.5%"}
{"smiles": "COc1ccc(OC)c(S(=O)(=O)NCc2cccn2Cc2cccc(C)c2)c1", "inhibition": "10.1%"}
{"smiles": "CC1=C(C(=O)Nc2cccnc2)C(c2ccc(Cl)cc2)n2nc(-c3ccccc3)nc2N1", "note": "(stereo not given)", "inhibition": "-1.83%"}
{"smiles": "Cc1ccc(C)c(NC(=O)CSc2c3c(nc4ccc(Cl)cc24)CCCC3)c1", "inhibition": "7.74%"}
{"smiles": "COc1cn(CC(=O)Nc2cccc(C)c2C)c(CN2CCCCC2)cc1=O", "inhibition": "13.1%"}
{"smiles": "Cn1c(=O)c2c(nc3n(-c4ccc(O)cc4)c(-c4ccc(Br)cc4)cn23)n(C)c1=O", "inhibition": "2.73%"}
{"smiles": "COc1ccc(C(=O)Nc2cccc(OCc3cc(=O)n4c5c(sc4n3)CCCC5)c2)cc1", "inhibition": "4.99%"}
{"smiles": "Cc1nc2ccccn2c(=O)c1NC(=O)c1ccc(C(F)(F)F)cc1", "inhibition": "7.94%"}
{"smiles": "COc1ccccc1NC(=O)CN1CCCN(S(=O)(=O)c2ccc(Br)cc2)CC1", "inhibition": "4.32%"}
{"smiles": "Cc1ccc(NC(=O)Cn2c(=O)n(CCCCC(=O)NCc3ccccc3Cl)c(=O)c3ccccc32)cc1C", "inhibition": "-15.1%"}
{"smiles": "CCOc1ccc(NC(=O)Cn2c(C)cc3ccccc3c2=O)cc1", "inhibition": "3.57%"}
{"smiles": "Cc1cc(Nc2ccc(F)cc2)n2c(nc3ccccc32)c1C#N", "inhibition": "10.4%"}
{"smiles": "COC(=O)c1ccccc1NC(=O)c1ccc2c(c1)CCN2S(C)(=O)=O", "inhibition": "17%"}
{"smiles": "COc1cc(Nc2ncc3c(n2)CCN(Cc2cc(Br)cs2)C3)cc(OC)c1", "inhibition": "0.122%"}
{"smiles": "Cc1c(-c2nc(-c3ccccc3)no2)nnn1-c1cccc(C(F)(F)F)c1", "inhibition": "-6.6%"}
{"smiles": "Cc1ccc(CSc2nc3c([nH]c4ccccc43)c(=O)n2C)cc1", "inhibition": "-15.6%"}
{"smiles": "COc1ccccc1CNC(=O)c1ccc2c(c1)nc(C)n2-c1ccccc1OC", "inhibition": "-9.31%"}
{"smiles": "Cc1nn2c(-c3ccco3)ccnc2c1-c1ccc(F)cc1", "inhibition": "13.6%"}
{"smiles": "CCN1CCOC(=O)C1CC(=O)Nc1cc(C)cc(C)c1", "note": "(stereo not given)", "inhibition": "3.8%"}
{"smiles": "Cc1ccccc1CN1C(=O)c2ccccc2Sc2ccc(C(=O)NC(C)c3ccccc3)cc21", "note": "(stereo not given)", "inhibition": "4.95%"}
{"smiles": "COc1ccc(NC(=O)CC2C(=O)N(c3ccc(F)cc3)C(=O)N2Cc2ccco2)cc1", "note": "(stereo not given)", "inhibition": "4.02%"}
{"smiles": "Cc1ccc(N2C(=O)CCSC23C(=O)N(Cc2ccccc2)c2ccccc23)cc1F", "note": "(stereo not given)", "inhibition": "-8.78%"}
{"smiles": "O=C(NCc1ccccc1)c1nn(-c2ccccc2)nc1CO", "inhibition": "10.2%"}
{"smiles": "COc1ccc(OC)c(/C=C(/C#N)c2nc(-c3ccc(-c4ccccc4)cc3)cs2)c1", "inhibition": "21.6%"}
{"smiles": "Cc1ccc(CNC(=O)Cn2c(=O)n(-c3ccc(Cl)cc3)c(=O)c3c(C)c(C)sc32)cc1", "inhibition": "-0.592%"}
{"smiles": "O=C(NCc1ccc(F)cc1)c1cc2c(=O)n3ccccc3nc2s1", "inhibition": "4.44%"}
{"smiles": "Cc1cc(C)cc(NS(=O)(=O)c2ccc3[nH]cc(C(=O)N(C)Cc4ccccc4)c(=O)c3c2)c1", "inhibition": "3.41%"}
{"smiles": "Cc1ccc(-c2nnc(C3CCN(S(=O)(=O)c4ccc(C)c(C)c4)CC3)o2)cc1", "inhibition": "2.78%"}
{"smiles": "CCOc1ccccc1NC(=O)CN1C(=O)CC(c2ccc(OC)c(OC)c2)Sc2ccccc21", "note": "(stereo not given)", "inhibition": "8.39%"}
{"smiles": "CCCCOC(=O)c1ccc(NC(=O)CSc2nc3c(c(=O)[nH]2)CCCC3)cc1", "inhibition": "9.5%"}
{"smiles": "Cn1c(-n2cccc2)c(-c2c(-c3ccccc3)[nH]c3c2c(=O)n(C)c(=O)n3C)c(=O)n(C)c1=O", "inhibition": "10.4%"}
{"smiles": "COc1ccc(Cl)cc1Nc1nc(C)cc(=O)[nH]1", "inhibition": "active: 74.4%"}
{"smiles": "CCc1ccccc1NC(=O)Nc1nnc(N(C)Cc2ccccc2)s1", "inhibition": "0.384%"}
{"smiles": "Clc1ccc(N2CCN(c3ncnc4c3cnn4-c3ccccc3)CC2)cc1Cl", "inhibition": "12.8%"}
{"smiles": "COc1ccc(NC(=O)c2cc(S(=O)(=O)N3CCCCCC3)cn2C)cc1Cl", "inhibition": "-10.6%"}
{"smiles": "COc1ccc(CNC(=O)CCNS(=O)(=O)c2cccc3nsnc23)cc1", "inhibition": "-6.2%"}
{"smiles": "CCOc1ccccc1CNC(=O)c1ccc(NC(=O)N2CCSc3ncccc32)cc1", "inhibition": "-12.1%"}
{"smiles": "Fc1ccc(-n2ncc3c(N4CCC(Cc5ccccc5)CC4)ncnc32)cc1", "inhibition": "-13.2%"}
{"smiles": "COc1ccc2oc(=O)c(-c3cn4c(n3)sc3cc(OC)ccc34)cc2c1", "inhibition": "-20.3%"}
{"smiles": "COc1ccc(OC)c(CNC(=O)Cn2nc(C)c3nn(-c4ccc(Cl)cc4)c(C)c3c2=O)c1", "inhibition": "1.82%"}
{"smiles": "COc1ccc(/C=C/C(=O)Nc2nc3n(n2)C(c2ccccc2)C=C(c2ccc(Cl)cc2)N3)cc1", "note": "(stereo not given)", "inhibition": "-11.8%"}
{"smiles": "COc1ccc2c(Sc3ccccc3)c(C(=O)NCCCN3CCCCC3)[nH]c2c1", "inhibition": "14.1%"}
{"smiles": "Cc1cccc(CCNC(=O)c2cnc3c(C)cccn3c2=O)c1", "inhibition": "16%"}
{"smiles": "CC(C)(C)c1ccc(S(=O)(=O)c2cn(CC(=O)Nc3ccccc3)c3ccccc3c2=O)cc1", "inhibition": "4.14%"}
{"smiles": "COc1ccccc1CNC(=O)Cc1csc2nc(-c3ccccc3)cn12", "inhibition": "8.6%"}
{"smiles": "Cc1ccc(CNC(=O)c2ccc3c(c2)N(Cc2ccccc2)C(=O)c2ccccc2S3(=O)=O)cc1", "inhibition": "-25.4%"}
{"smiles": "COC(=O)CN1C(c2ccc(OC)cc2)=Nc2ccc(Cl)cc2C1c1ccccc1", "note": "(stereo not given)", "inhibition": "active: 91.4%"}
{"smiles": "O=C(Nc1nnc(S(=O)(=O)N2CCCc3ccccc32)s1)c1cccc(F)c1", "inhibition": "-12.3%"}
{"smiles": "COc1ccc(N(C(=O)c2cccc(C)c2)S(=O)(=O)c2ccc(C)cc2)cc1", "inhibition": "-5.26%"}
{"smiles": "COC(=O)C1CCN(CC(=O)Nc2cc(C)c3c(=O)oc4ccccc4c3n2)CC1", "inhibition": "2.81%"}
{"smiles": "Cc1cc(C)c(NC(=O)Cn2ccn(-c3cccc(Cl)c3)c(=O)c2=O)c(C)c1", "inhibition": "-27.6%"}
{"smiles": "O=C(CCC1N=C2c3ccccc3N=C(SCc3ccccc3F)N2C1=O)NCCc1ccccc1", "note": "(stereo not given)", "inhibition": "12.6%"}
{"smiles": "CCn1c(SCc2ccc(F)cc2Cl)nnc1-c1nonc1NC(C)=O", "inhibition": "-9.47%"}
{"smiles": "Cc1ccc2c(c1)N(C(=O)C1CCN(S(=O)(=O)c3c(C)noc3/C=C/c3ccccc3F)CC1)CCO2", "inhibition": "-15%"}
{"smiles": "COc1ccc(N(Cc2cccs2)C(=O)c2ccc(C(C)(C)C)cc2)cc1", "inhibition": "-4.53%"}
{"smiles": "COc1cc2[nH]c(=O)n(Cc3ccc(C(=O)N4CCN(c5cc(Cl)ccc5C)CC4)cc3)c(=O)c2cc1OC", "inhibition": "6.18%"}
{"smiles": "O=C(NCC(c1ccc2c(c1)OCO2)N1CCOCC1)C(=O)Nc1ccc(F)cc1F", "note": "(stereo not given)", "inhibition": "-11.8%"}
{"smiles": "Cc1cc(NC(=O)CN2CC(C)OC(C)C2)n(-c2nc3ccccc3s2)n1", "note": "(stereo not given)", "inhibition": "active: 34.3%"}
{"smiles": "O=C(CN1C(=O)CC(c2ccco2)Sc2ccccc21)Nc1ccc(C(F)(F)F)cc1", "note": "(stereo not given)", "inhibition": "-10.3%"}
{"smiles": "O=C(Nc1cccc(Cl)c1)N1CCC(CN2CCOCC2)CC1", "inhibition": "-1.83%"}
{"smiles": "CCOC(=O)c1nc(Nc2ccccc2OC)c2ccccc2n1", "inhibition": "-18.5%"}
{"smiles": "Cc1cn2c(=O)cc(COc3ccc(NC(=O)c4ccccc4C)cc3)nc2s1", "inhibition": "-0.63%"}
{"smiles": "O=C(CCCCCn1c(=O)[nH]c2ccsc2c1=O)N1CCN(C2CCCCC2)CC1", "inhibition": "active: 52.8%"}
{"smiles": "CC(C)c1nnc(NC(=O)CC23CC4CC(CC(C4)C2)C3)s1", "inhibition": "active: 36.1%"}
{"smiles": "Cc1nn(C)c2c1c(C(F)(F)F)cc(=O)n2CC(=O)N1CCCCC1C", "note": "(stereo not given)", "inhibition": "17.4%"}
{"smiles": "CCCOc1ccc(-c2nc(N3CCCCC3)c3ccccc3n2)cc1", "inhibition": "1.45%"}
{"smiles": "Cc1ccc(-n2ncc(C(=O)Nc3ccc4c(c3)OCO4)c2C2CCN(C(=O)OC(C)(C)C)CC2)c(C)c1", "inhibition": "-5.48%"}
{"smiles": "CCOC(=O)CSc1nc(C)cc(Oc2ccc(=O)n(C)n2)n1", "inhibition": "active: 35.8%"}
